The source of these data is PubChem BioAssay AID2060349 (Molecular Pharmacology Branch, DTP, NCI, 2025).

Some entries of the source have several records that differ or are many. This is not the full list of results. An entry can have further records. Values given together are repeats across runs, samples, wells, individuals or studies. A date in brackets names the month of the test.

This test relates to 762968-020-R-J2-PDC spheroids viability. The test can be described thus: Anticancer human tumor 762968-020-R-J2-PDC patient-derived colon carcinoma cell line growth inhibition [TAK]. The note with it: spheroids with HUVEC and MSC. The source says:
Combinatorial screen of targeted agents with TAK-243 and ipatasertib in multi-cell type tumor spheroids
A high-throughput screen of multi-cell type tumor spheroids was designed to identify active combinations of targeted small molecules and TAK-243 or ipatasertib. Complex spheroids include a stromal component modeled by human endothelial cells (HUVEC) and fibroblasts modeled by human mesenchymal stem cells (MSCs). The concentration ranges selected for each drug and investigational agent were based upon clinically achievable concentrations if the clinical Cmax of the agent was known.
Compounds. […] If the clinical Cmax for an agent had not been determined, the highest concentration tested was 10 microM.
NCI60 Cell Culture. […] The optimal seeding densities for each of the cell lines at each time point assessed were determined prior to performing the concentration response studies. […]
For the pre-screen, cell seeding densities were determined from a titration spanning the range from 5,000 to 313 cells per well. […]
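Further: spheroids exposed to drug for 7 days before readout.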
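Wherever viability, T/C is given: 100% = DMSO vehicle control wells.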

Usually viability, T/C stands for the result in the treated group divided by that in the control group, in per cent. On to `CC(C)NCC(C(=O)N1CCN(c2ncnc3c2C(C)CC3O)CC1)c1ccc(Cl)cc1` (configuration not stated), for which, where the note is “compound alone 30 µM, stronger effect = lower value”, the viability, T/C was 13.5% [2020-02] and 81, 82.8, 85.4, 85.3, 87, 88, 82.3, 83, 81.2% [2020-03]. By IC50 is commonly meant the point on the concentration scale where inhibition reaches its midpoint. For the compound `COc1c(OCCCN2CCOCC2)ccc2c3n(c(=NC(=O)c4cnc(N)nc4)nc12)CCN3`, where the note is “compound alone”, the half-maximal inhibitory concentration (IC50) was 73.1 nM [2020-02] and > 1 µM [2020-03].
